# Laboratory results from the supplement of paper PMC4967469.
# Lines with a small IC50 respond at low doses; where the fit passes the top or lowest dose, that dose stands as a limit. AUC is the area under the same curve over the 256-fold range up to the top dose, as a fraction; the more sensitive the line, the further below 1. Where the top dose is marked as inferred, it comes from the curve model; the source does not state it. For part of these data: Drugs with an entry number were screened twice under separate entries, and the two screens often disagree.
# Compound: COc1cc(N2CCN(C)CC2)ccc1Nc1ncc2c(n1)N(C)c1ccccc1C(=O)N2C [XMD8-85]
# Experiment: Viability of human cancer cell lines after 72 h of drug (GDSC screen)
# Conditions: top dose 8 µM; top dose inferred
# Procedure: (§1)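 Human cancer cell lines in 384-well plates, medium with 10% serum, drug for 72 h over a 256-fold dose range (nine 2-fold or five 4-fold steps up to the top dose). Adherent lines were fixed and stained with the nucleic acid dye Syto60, suspension lines read with resazurin; signal relative to control wells, capped at 0 and 100%. One two-parameter sigmoid per drug and line, fitted in a mixed model over all curves with the slope shared within a line.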
Cell Line,AUC,IC50
"AM-38 (glioma, semi-adherent)",0.988,> 8 µM
"COR-L279 (small cell lung carcinoma, suspension)",0.905,> 8 µM
"DOHH-2 (B-cell lymphoma, suspension)",0.752,2.61 µM
"GOTO (neuroblastoma, adherent)",0.909,> 8 µM
"H-EMC-SS (chondrosarcoma, adherent)",0.976,> 8 µM
"HA7-RCC (kidney, adherent)",0.86,7.9 µM
"HD-MY-Z (Hodgkin lymphoma, adherent)",0.96,> 8 µM
"HL-60 (acute myeloid leukaemia, suspension)",0.847,5.02 µM
"HT-144 (melanoma, adherent)",0.947,> 8 µM
"JAR (urogenital system, adherent)",0.964,> 8 µM
"KALS-1 (glioma, adherent)",0.82,6.99 µM
"KASUMI-1 (acute myeloid leukaemia, suspension)",0.857,6.52 µM
"KG-1 (acute myeloid leukaemia, suspension)",0.984,> 8 µM
"KMS-12-BM (myeloma, suspension)",0.806,3.25 µM
"MOLM-13 (acute myeloid leukaemia, suspension)",0.778,3.03 µM
"MPP-89 (mesothelioma, adherent)",0.744,3.15 µM
"MV-4-11 (leukaemia, suspension)",0.701,1.63 µM
"MY-M12 (leukaemia, suspension)",0.83,5.95 µM
"MZ7-mel (melanoma, adherent)",0.869,7.85 µM
"NCI-H1581 (large cell lung carcinoma, semi-adherent)",0.987,> 8 µM
"NCI-H1963 (small cell lung carcinoma, suspension)",0.966,> 8 µM
"NU-DUL-1 (B-cell lymphoma, suspension)",0.842,4.09 µM
"QIMR-WIL (acute myeloid leukaemia, suspension)",0.839,5.24 µM
"RL95-2 (endometrium, adherent)",0.886,> 8 µM
"RPMI-8226 (myeloma, suspension)",0.911,> 8 µM
"THP-1 (acute myeloid leukaemia, suspension)",0.951,> 8 µM

# Compound: COc1cc(-c2nn([C@H]3CC[C@H](N4CCN(C(C)=O)CC4)CC3)c3ncnc(N)c23)ccc1NC(=O)c1cc2ccccc2n1C [A-770041]
# Experiment: as above
# Conditions: top dose 5.12 µM; top dose inferred
# Procedure: as §1
Cell Line,AUC,IC50
"AM-38 (glioma, semi-adherent)",0.988,> 5.12 µM
"COR-L279 (small cell lung carcinoma, suspension)",0.981,> 5.12 µM
"DOHH-2 (B-cell lymphoma, suspension)",0.202,0.0432 µM
"GOTO (neuroblastoma, adherent)",0.873,> 5.12 µM
"H-EMC-SS (chondrosarcoma, adherent)",0.976,> 5.12 µM
"HA7-RCC (kidney, adherent)",0.699,1.24 µM
"HD-MY-Z (Hodgkin lymphoma, adherent)",0.801,2.51 µM
"HL-60 (acute myeloid leukaemia, suspension)",0.875,4.17 µM
"HT-144 (melanoma, adherent)",0.835,3.92 µM
"JAR (urogenital system, adherent)",0.971,> 5.12 µM
"KALS-1 (glioma, adherent)",0.738,2.01 µM
"KASUMI-1 (acute myeloid leukaemia, suspension)",0.982,> 5.12 µM
"KG-1 (acute myeloid leukaemia, suspension)",0.989,> 5.12 µM
"KMS-12-BM (myeloma, suspension)",0.983,> 5.12 µM
"MOLM-13 (acute myeloid leukaemia, suspension)",0.913,> 5.12 µM
"MPP-89 (mesothelioma, adherent)",0.858,> 5.12 µM
"MV-4-11 (leukaemia, suspension)",0.871,3.41 µM
"MY-M12 (leukaemia, suspension)",0.461,0.247 µM
"MZ7-mel (melanoma, adherent)",0.939,> 5.12 µM
"NCI-H1581 (large cell lung carcinoma, semi-adherent)",0.99,> 5.12 µM
"NCI-H1963 (small cell lung carcinoma, suspension)",0.965,> 5.12 µM
"NU-DUL-1 (B-cell lymphoma, suspension)",0.293,0.0957 µM
"QIMR-WIL (acute myeloid leukaemia, suspension)",0.799,2.37 µM
"RL95-2 (endometrium, adherent)",0.552,0.442 µM
"RPMI-8226 (myeloma, suspension)",0.966,> 5.12 µM
"THP-1 (acute myeloid leukaemia, suspension)",0.989,> 5.12 µM

# Compound: O=C1NC(=O)c2c1c(-c1ccccc1Cl)cc1[nH]c3ccc(O)cc3c21 [Wee1 inhibitor 681640]
# Experiment: as above
# Conditions: top dose 2 µM; top dose inferred
# Procedure: as §1
Cell Line,AUC,IC50
"AM-38 (glioma, semi-adherent)",0.965,> 2 µM
"COR-L279 (small cell lung carcinoma, suspension)",0.991,> 2 µM
"DOHH-2 (B-cell lymphoma, suspension)",0.868,1.75 µM
"H-EMC-SS (chondrosarcoma, adherent)",0.867,> 2 µM
"HL-60 (acute myeloid leukaemia, suspension)",0.983,> 2 µM
"HT-144 (melanoma, adherent)",0.927,> 2 µM
"JAR (urogenital system, adherent)",0.934,> 2 µM
"KG-1 (acute myeloid leukaemia, suspension)",0.969,> 2 µM
"MOLM-13 (acute myeloid leukaemia, suspension)",0.961,> 2 µM
"MPP-89 (mesothelioma, adherent)",0.864,> 2 µM
"MV-4-11 (leukaemia, suspension)",0.884,1.5 µM
"MY-M12 (leukaemia, suspension)",0.973,> 2 µM
"MZ7-mel (melanoma, adherent)",0.987,> 2 µM
"NU-DUL-1 (B-cell lymphoma, suspension)",0.979,> 2 µM
"QIMR-WIL (acute myeloid leukaemia, suspension)",0.964,> 2 µM
"RPMI-8226 (myeloma, suspension)",0.975,> 2 µM
"THP-1 (acute myeloid leukaemia, suspension)",0.99,> 2 µM

# Compound: O=C(c1cc(Cc2n[nH]c(=O)c3ccccc23)ccc1F)N1CCN(C(=O)C2CC2)CC1 [Olaparib]
# Experiment: as above
# Conditions: top dose 5 µM; screen: GDSC drug entry 1017; top dose inferred
# Procedure: as §1
Cell Line,AUC,IC50
"AM-38 (glioma, semi-adherent)",0.969,> 5 µM
"COR-L279 (small cell lung carcinoma, suspension)",0.964,> 5 µM
"DOHH-2 (B-cell lymphoma, suspension)",0.874,4.65 µM
"GOTO (neuroblastoma, adherent)",0.955,> 5 µM
"HA7-RCC (kidney, adherent)",0.984,> 5 µM
"HD-MY-Z (Hodgkin lymphoma, adherent)",0.907,> 5 µM
"KASUMI-1 (acute myeloid leukaemia, suspension)",0.969,> 5 µM
"KMS-12-BM (myeloma, suspension)",0.99,> 5 µM
"MOLM-13 (acute myeloid leukaemia, suspension)",0.942,> 5 µM
"MPP-89 (mesothelioma, adherent)",0.979,> 5 µM
"MY-M12 (leukaemia, suspension)",0.873,> 5 µM
"NCI-H1581 (large cell lung carcinoma, semi-adherent)",0.99,> 5 µM
"NCI-H1963 (small cell lung carcinoma, suspension)",0.991,> 5 µM
"NU-DUL-1 (B-cell lymphoma, suspension)",0.961,> 5 µM
"QIMR-WIL (acute myeloid leukaemia, suspension)",0.966,> 5 µM
"RL95-2 (endometrium, adherent)",0.969,> 5 µM
"RPMI-8226 (myeloma, suspension)",0.942,> 5 µM

# Same assay, conditions: top dose 10 µM; screen: GDSC drug entry 1495
Cell Line,AUC,IC50
"AM-38 (glioma, semi-adherent)",0.976,> 10 µM
"COR-L279 (small cell lung carcinoma, suspension)",0.798,4.17 µM
"GOTO (neuroblastoma, adherent)",0.794,5.35 µM
"H-EMC-SS (chondrosarcoma, adherent)",0.979,> 10 µM
"HA7-RCC (kidney, adherent)",0.869,> 10 µM
"HD-MY-Z (Hodgkin lymphoma, adherent)",0.883,> 10 µM
"HT-144 (melanoma, adherent)",0.959,> 10 µM
"JAR (urogenital system, adherent)",0.975,> 10 µM
"KALS-1 (glioma, adherent)",0.975,> 10 µM
"KASUMI-1 (acute myeloid leukaemia, suspension)",0.983,> 10 µM
"MOLM-13 (acute myeloid leukaemia, suspension)",0.9,> 10 µM
"MPP-89 (mesothelioma, adherent)",0.926,> 10 µM
"MZ7-mel (melanoma, adherent)",0.982,> 10 µM
"NCI-H1581 (large cell lung carcinoma, semi-adherent)",0.929,> 10 µM
"NU-DUL-1 (B-cell lymphoma, suspension)",0.99,> 10 µM
"QIMR-WIL (acute myeloid leukaemia, suspension)",0.959,> 10 µM
"RL95-2 (endometrium, adherent)",0.947,> 10 µM
"RPMI-8226 (myeloma, suspension)",0.976,> 10 µM

# Compound: NC(=O)c1ccc(N(C(N)=O)c2c(F)cccc2F)nc1-c1ccc(F)cc1F [VX-702]
# Experiment: as above
# Conditions: top dose 2 µM; top dose inferred
# Procedure: as §1
Cell Line,AUC,IC50
"AM-38 (glioma, semi-adherent)",0.953,> 2 µM
"COR-L279 (small cell lung carcinoma, suspension)",0.991,> 2 µM
"DOHH-2 (B-cell lymphoma, suspension)",0.983,> 2 µM
"GOTO (neuroblastoma, adherent)",0.982,> 2 µM
"HA7-RCC (kidney, adherent)",0.984,> 2 µM
"HD-MY-Z (Hodgkin lymphoma, adherent)",0.957,> 2 µM
"HL-60 (acute myeloid leukaemia, suspension)",0.956,> 2 µM
"KASUMI-1 (acute myeloid leukaemia, suspension)",0.932,> 2 µM
"KMS-12-BM (myeloma, suspension)",0.985,> 2 µM
"MOLM-13 (acute myeloid leukaemia, suspension)",0.973,> 2 µM
"MV-4-11 (leukaemia, suspension)",0.98,> 2 µM
"MY-M12 (leukaemia, suspension)",0.979,> 2 µM
"NCI-H1581 (large cell lung carcinoma, semi-adherent)",0.99,> 2 µM
"NCI-H1963 (small cell lung carcinoma, suspension)",0.991,> 2 µM
"NU-DUL-1 (B-cell lymphoma, suspension)",0.99,> 2 µM
"QIMR-WIL (acute myeloid leukaemia, suspension)",0.97,> 2 µM
"RL95-2 (endometrium, adherent)",0.986,> 2 µM
"RPMI-8226 (myeloma, suspension)",0.909,> 2 µM
"THP-1 (acute myeloid leukaemia, suspension)",0.991,> 2 µM

# Compound: Cc1cc(N2CCOCC2)cc2[nH]c(-c3c(NC[C@@H](O)c4cccc(Cl)c4)cc[nH]c3=O)nc12 [BMS-536924]
# Experiment: as above
# Conditions: top dose 4 µM; screen: GDSC drug entry 1091; top dose inferred
# Procedure: as §1
Cell Line,AUC,IC50
"AM-38 (glioma, semi-adherent)",0.975,> 4 µM
"COR-L279 (small cell lung carcinoma, suspension)",0.989,> 4 µM
"GOTO (neuroblastoma, adherent)",0.905,> 4 µM
